For test [1], the target named is T1, eIF2α.1 full length fused to the GAL4 DNA binding domain (Arabidopsis thaliana) (UniProt Q9FE78).
T1 sequence: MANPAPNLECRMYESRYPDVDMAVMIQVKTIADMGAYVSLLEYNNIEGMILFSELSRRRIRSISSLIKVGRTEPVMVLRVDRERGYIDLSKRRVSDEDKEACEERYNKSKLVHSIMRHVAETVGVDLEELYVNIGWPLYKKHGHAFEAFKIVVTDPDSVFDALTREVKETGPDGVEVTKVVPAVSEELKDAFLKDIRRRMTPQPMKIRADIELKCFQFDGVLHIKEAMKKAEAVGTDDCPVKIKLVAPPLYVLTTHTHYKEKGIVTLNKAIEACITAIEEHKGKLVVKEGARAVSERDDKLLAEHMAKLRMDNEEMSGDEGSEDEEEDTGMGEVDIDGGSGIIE
The test is described as follows: two-hybrid; GAL4 system; eIF2α homologs on the DNA-binding domain (pGBT9, bait), SPA1 forms on the activation domain (pGAD424, prey); yeast AH109; growth on SD-Leu-Trp-His, 30 °C.

Test [2] deals with T2, eIF2α.1-YC (Arabidopsis thaliana) (UniProt Q9FE78).
T2 sequence: T1 sequence
The test is described as follows: split reporter; BiFC; SPA1-YN and eIF2α-YC co-transfected into Arabidopsis Col-0 protoplasts; light condition.

In test [3] the target is T3, eIF2α.1-GFP (Arabidopsis thaliana) (UniProt Q9FE78).
T3 sequence: T1 sequence
As to the kind of experiment: condition: only etiolated seedlings kept in the dark; co-IP; as a3, but four-day-old etiolated seedlings kept in the dark.

Test [4] addresses T3, eIF2α.1-GFP (Arabidopsis thaliana). As to the kind of experiment: co-IP; total extracts of eIF2α.1-GFP or eIF2α.2-GFP seedlings mixed with extract of TAP-SPA1 seedlings; GFP-Trap; blots anti-cMyc and anti-GFP; four-day-old etiolated seedlings illuminated with white light for 4 h.
Test [5] has as its target T4, eIF2α.1 of the pull-down assay of Supplementary Fig. 3 (Arabidopsis thaliana) (UniProt Q9FE78).
T4 sequence: T1 sequence
The test is described as follows: pull-down; pull-down of Supplementary Fig. 3; format not told in the text shown.

These are yes or no findings as the source states them, for the method shown. For part of these data: Binding seen in cells or lysates may run through a third protein. Some results given as binding are weak or reduced against the parent protein; the word gives no strength. For part of these data: Sequences can lack the tags named with a protein.

B1: SPA1 kinase domain fused to the GAL4 activation domain (domain or fragment, UniProt Q9SYX2 188-529)
chain: VQMKTPVSSSNFSQLLLKRAMKGKGVVGKNQETPPEFVSDQDLGSKEKKLDISKSPTPHDVLPLKSSPKGNGMVSHGDGNHSKSSIGISLREFLRSSYAKREKRHGLCLFRQLVELVDSAHSKRLFLLDLRPSLFTLVPSKKLRYIGNFGKNDLESDVDEDLNRRRPVVEESSSGGRDSKKRKMDLHLNSPGNQLQATSTGRPFKRKSPVIDLNMVDARNPDSCELQQQDYIKNLSVSSVSRKQSMSTWLEEQWYTCPEEINGEDIGEKSNIYALGVLLFELLCHCESGEMHAAMMADLRHRILPPTFLSKYPKEAGFCLWLLHPEPSSRPSARDILKSELI
With B1, the binding entry in test [1] is “binds”.

B2: SPA1 full length fused to the GAL4 activation domain (protein, UniProt Q9SYX2 1-1029)
chain: MPVMERVAEETVATNNIQLKARVDDVPCNKLDARHNDMVIQSETANSDCPGSSAHRNVDLTKPPPPEEAAGAKLSVEELTLGNYRIVQGSNNTNVDSPRAGKFEHLYRLARGSAFRAGDGDLDSQPRDMDQMLSRIRQQLAGAPSERQNLKPFMSRRSDQNLEAFSERLRAAGENSIMNAPALISEGVQMKTPVSSSNFSQLLLKRAMKGKGVVGKNQETPPEFVSDQDLGSKEKKLDISKSPTPHDVLPLKSSPKGNGMVSHGDGNHSKSSIGISLREFLRSSYAKREKRHGLCLFRQLVELVDSAHSKRLFLLDLRPSLFTLVPSKKLRYIGNFGKNDLESDVDEDLNRRRPVVEESSSGGRDSKKRKMDLHLNSPGNQLQATSTGRPFKRKSPVIDLNMVDARNPDSCELQQQDYIKNLSVSSVSRKQSMSTWLEEQWYTCPEEINGEDIGEKSNIYALGVLLFELLCHCESGEMHAAMMADLRHRILPPTFLSKYPKEAGFCLWLLHPEPSSRPSARDILKSELICEDDSVKSTAAAEEISELLLHFLSSLEVQKKKKASKLLQDIQTLEDDIKEAERRYSSNVSLVRSHGAIEKRVQSSPLDEHCTTSSALFVPTANTDRLMSNIRQLEDAYFFMRSQINLSSSAATARSDKTLKDRDRCSENQNENQDMSTKGKSSDQLEVFFEGLCKFARYSKFETCGTIRSGDLLNSASVVCSLSFDPDEEHIAAAGISKKIKIFDFNAFMNESVGVHYPLVEMVNKSKLSCVCWNSYIKNYLASTDYDGVVQIWDAGTGQGFSQYTEHQKRAWSVDFSPSDPTKFVSGSDDCSVKLWSINEKRSLGTIWSPANVCCVQFSSYSNHLLAFGSADYKVYCYDLRYVKTPWCTLAGHEKAVSYVKFMDSETIVSASTDNSLKLWNLNKTNSSGLSPGACSLTYKGHTNQKNFVGLSVLDGYIACGSETNEVYSYYKSLPMPMTSYKFGSVDPISGNEYFDDNGQFVSSVCWRKKSNMLVAANSTGNMKLLKLV
For B2, the binding entry in test [1] is given as “binds”.

B3: SPA1-YN (protein, UniProt Q9SYX2 1-1029)
chain: B2 chain
Regarding B3, in test [2], the binding entry was “binds”.

B4: tandem affinity purification cMyc-SPA1 (TAP-SPA1) (protein, UniProt Q9SYX2 1-1029)
chain: B2 chain
Turning to B4, the binding result is listed as “no binding” in test [3] and “binds” in test [4].

B5: SPA1 of the pull-down assay of Supplementary Fig. 3 (protein, UniProt Q9SYX2 1-1029)
chain: B2 chain
For the molecule B5, the binding entry in test [5] is recorded as “binds”.

For the origin of these results see PMC11043401.
